# Hit rate of the full screen: of about 39,000 compounds, about 220 (0.56%) showed activity. The list shows a part of the results.
# Tested on: Escherichia coli K-12 BW25113
# Experiment: relative growth (OD600 normalised to plate interquartile mean) (fraction); higher = less growth inhibition, active = 0.2 or less
# Details: 50 µM; LB; incubation time: overnight (16-24 h)
# 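Further: static incubation at 37 °C against the wild-type strain, values averaged over two biological replicates.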
row,SMILES,relative growth
1,O=C1CNc2cc(C(=O)O)ccc2N1,inactive: 0.999
2,COc1ccc(S(=O)(=O)Nc2ccc3c(c2)C(=O)N([C@@H](C)CO)C[C@@H](C)[C@H](CN(C)C(=O)Nc2c(C)noc2C)OCCCC[C@H](C)O3)cc1,inactive: 1
3,CN(C)/C=C/C(=S)c1cccs1,inactive: 1.04
4,C[C@@H]1CCCCO[C@@H](CN(C)C(=O)c2ccncc2)[C@H](C)CN([C@H](C)CO)C(=O)c2cc(NS(=O)(=O)c3cn(C)cn3)ccc2O1,inactive: 0.99
5,COc1ccc(S(=O)(=O)N(C)C[C@H]2Oc3ccc(NS(=O)(=O)c4ccccc4)cc3CC(=O)N([C@H](C)CO)C[C@@H]2C)cc1,inactive: 1.01
6,Cc1noc(C)c1S(=O)(=O)Nc1ccc2c(c1)C(=O)N([C@@H](C)CO)C[C@@H](C)[C@@H](CN(C)CC1CC1)O2,inactive: 0.978
7,COc1ccc(NC(=O)N(C)C[C@H]2Oc3ncc(C#C[C@@H](C)O)cc3C(=O)N([C@@H](C)CO)C[C@H]2C)cc1,inactive: 0.993
8,C[C@@H]1CN([C@H](C)CO)C(=O)c2cccc(NC(=O)Nc3cccc4ccccc34)c2O[C@@H]1CN(C)Cc1ccccc1,inactive: 0.991
9,O=C(C[C@@H]1CC=CCCC(=O)OC[C@@H](Cc2c[nH]c3ccccc23)NC1=O)N[C@@H](CO)Cc1ccccc1,inactive: 1.01
10,Cc1noc(C)c1S(=O)(=O)Nc1ccc2c(c1)CC(=O)N([C@@H](C)CO)C[C@H](C)[C@H](CN(C)CC1CC1)O2,inactive: 0.991
11,C[C@H]1CN([C@@H](C)CO)C(=O)Cc2cc(NS(=O)(=O)c3cccs3)ccc2O[C@H]1CN(C)C(=O)Nc1cccc2ccccc12,inactive: 1
12,CO[C@@H]1CN(C)C(=O)c2ccc(NC(=O)Nc3ccc(Cl)cc3)cc2OC[C@H](C)N(C(=O)Nc2c(C)noc2C)C[C@@H]1C,inactive: 0.949
13,C[C@@H]1CCCCO[C@@H](CN(C)CC2CCCCC2)[C@@H](C)CN([C@@H](C)CO)C(=O)c2cc(NS(=O)(=O)c3ccc(Cl)cc3)ccc2O1,inactive: 0.986
14,C[C@H]1CN([C@@H](C)CO)C(=O)c2cccc(NS(=O)(=O)c3ccc(F)cc3)c2O[C@@H]1CN(C)Cc1ccncc1,inactive: 1.03
15,CCS(=O)(=O)Nc1ccc2c(c1)C(=O)N(C)C[C@@H](OC)[C@H](C)CN(Cc1nccs1)[C@@H](C)CO2,inactive: 0.987
16,C[C@@H]1C[C@H](O)/C=C/[C@H](O)[C@@H](O)CC(=O)O1,inactive: 0.987
17,O=C(CCCCCNC(=O)OCCCCO[C@H]1C[C@@H](c2ccc3c(c2)OCO3)C=C(C(=O)N2CCOCC2)O1)NO,inactive: 0.95
18,C[C@@H]1CN([C@H](C)CO)C(=O)Cc2cc(NC(=O)Nc3cccc4ccccc34)ccc2O[C@H]1CN(C)C(=O)Nc1ccc(C(F)(F)F)cc1,inactive: 1
19,COc1ccc(S(=O)(=O)Nc2ccc3c(c2)C(=O)N([C@H](C)CO)C[C@H](C)[C@@H](CN(C)S(=O)(=O)c2cn(C)cn2)OCCCC[C@H](C)O3)cc1,inactive: 1.01
20,C[C@H]1CN([C@@H](C)CO)C(=O)c2c(c3ccccc3n2C)-c2ccccc2CO[C@@H]1CN(C)Cc1cccc2c1OCCCO2,inactive: 1.03
21,C[C@H]1CN([C@@H](C)CO)S(=O)(=O)c2ccc(C#Cc3cccc(F)c3)cc2O[C@H]1CN(C)C(=O)CN1CCOCC1,inactive: 1.01

row,SMILES,relative growth
1,COc1ccc(CN(C)C[C@H]2Oc3c(NS(=O)(=O)c4c(C)noc4C)cccc3C(=O)N([C@H](C)CO)C[C@H]2C)cc1,inactive: 0.837
2,Cc1ccc(S(=O)(=O)N(C)C[C@@H]2OCCCC[C@@H](C)Oc3ccc(NC(=O)c4ccccc4)cc3C(=O)N([C@H](C)CO)C[C@@H]2C)cc1,inactive: 1.06
3,C[C@@H]1CN([C@@H](C)CO)C(=O)Cc2cc(NC(=O)Cc3cn(C)c4ccccc34)ccc2O[C@@H]1CN(C)Cc1ccc(C(F)(F)F)cc1,inactive: 1.03
4,COc1cccc(S(=O)(=O)N[C@H]2C=C[C@H](CC(=O)NC3CCC3)O[C@@H]2CO)c1,inactive: 0.98
5,CN1C(C)(C)CCCC1(C)C.O=C(O)C(O)C(O)C(=O)O,inactive: 0.993
6,COCC(=O)N1C[C@@H]2OCCN(c3ccc(C)nn3)[C@H]2C1,inactive: 0.994
7,COc1ccc(S(=O)(=O)N(C)C[C@H]2Oc3ccc(NS(=O)(=O)c4cn(C)cn4)cc3C(=O)N([C@@H](C)CO)C[C@H]2C)cc1,inactive: 1.06
8,NCC[C@@H]1CC[C@H](NC(=O)c2ccccc2F)[C@@H](CO)O1,inactive: 1.01
9,CSC(=N)NCCC[C@@H](N)C(=O)O,inactive: 0.977
10,C[C@@H]1CN([C@@H](C)CO)C(=O)c2cccc(NC(=O)c3cnccn3)c2O[C@H]1CN(C)Cc1ccccc1,inactive: 1.01
11,COCC(=O)N(C)C[C@@H]1Oc2cc(-c3ccc(OC)cc3)ccc2S(=O)(=O)N([C@@H](C)CO)C[C@@H]1C,inactive: 0.997
12,COc1ccc(S(=O)(=O)N(C)C[C@H]2OCCCC[C@@H](C)Oc3ccc(NC(=O)c4ccccc4)cc3C(=O)N([C@H](C)CO)C[C@@H]2C)cc1,inactive: 1.08
13,Oc1ccc(Cl)c2c1CCC2,inactive: 0.835
14,Cc1cc(C(=O)Nc2cccc3c2O[C@@H](CN(C)Cc2ccccc2)[C@H](C)CN([C@H](C)CO)C3=O)n(C)n1,inactive: 1.01
15,COc1ccc(S(=O)(=O)N[C@H]2CC[C@H](CC(=O)N3CCN(c4ccccc4)CC3)O[C@H]2CO)cc1,inactive: 1.01
16,C[C@@H]1CCCCO[C@@H](CN(C)C(=O)Nc2ccc(C(F)(F)F)cc2)[C@H](C)CN([C@@H](C)CO)C(=O)c2cc(NC(=O)Nc3ccc4c(c3)OCO4)ccc2O1,inactive: 1.04
17,C[C@@H]1CN([C@@H](C)CO)C(=O)c2cc(C#CC3CCCC3)cnc2O[C@H]1CN(C)S(=O)(=O)c1cccc(F)c1,inactive: 0.998
18,C[C@@H]1CN([C@H](C)CO)C(=O)Cc2cc(NC(=O)NC3CCCCC3)ccc2O[C@@H]1CN(C)S(C)(=O)=O,inactive: 0.981
19,CO[C@@H]1CN(C)C(=O)c2cc(NC(=O)c3cnccn3)ccc2OC[C@@H](C)N(C(=O)c2cnccn2)C[C@H]1C,inactive: 1
20,C[C@@H]1CN([C@H](C)CO)C(=O)Cc2cc(NC(=O)C3CCCCC3)ccc2O[C@H]1CN(C)Cc1ccc(Cl)c(Cl)c1,inactive: 1.01
21,CC(C)NC(=O)N(C)C[C@H]1OCCCC[C@@H](C)Oc2ccc(NS(=O)(=O)c3cn(C)cn3)cc2C(=O)N([C@H](C)CO)C[C@@H]1C,inactive: 0.997

row,SMILES,relative growth
1,C=C(O)C(=O)OCC,inactive: 1
2,C[C@@H]1CN([C@@H](C)CO)C(=O)c2cc(-c3ccncc3)cnc2O[C@@H]1CN(C)S(=O)(=O)c1ccc(F)cc1,inactive: 0.998
3,COc1ccc(OC)c(S(=O)(=O)N2[C@@H]3CC[C@@H](C3)[C@H]2c2nc3cccc(OCc4ccccc4)c3[nH]2)c1,inactive: 1.01
4,C[C@@H]1CN([C@@H](C)CO)C(=O)c2cc(NC(=O)Nc3ccc4c(c3)OCO4)ccc2O[C@@H](C)CCCCO[C@H]1CN(C)Cc1ccc(Cl)c(Cl)c1,inactive: 1.02
5,C[C@@H]1CN([C@@H](C)CO)C(=O)c2ccccc2-c2ccccc2CO[C@@H]1CN(C)C(=O)N[C@H](C)c1ccccc1,inactive: 0.986
6,C[C@@H]1CN([C@H](C)CO)C(=O)c2cccc(NC(=O)Nc3ccc(C(F)(F)F)cc3)c2O[C@H]1CN(C)Cc1ccc2c(c1)OCO2,inactive: 0.761
7,Cn1cc(-c2ccno2)c(C(=O)O)n1,inactive: 0.983
8,C[C@H]1CN([C@@H](C)CO)C(=O)c2cccc(NC(=O)C3CC3)c2O[C@@H]1CN(C)Cc1ccc(C(=O)O)cc1,inactive: 0.996
9,C[C@@]1(c2cccs2)CC(c2cccs2)=Nc2ccccc2N1,inactive: 1.03
10,Cc1ccc(S(=O)(=O)Nc2ccc3c(c2)C(=O)N([C@@H](C)CO)C[C@@H](C)[C@H](CN(C)C(=O)Nc2ccccc2)OCCCC[C@@H](C)O3)cc1,inactive: 1.02
11,O=C(C[C@@H]1CC=CC[C@@H](NC(=O)OCC2c3ccccc3-c3ccccc32)C(=O)OC[C@@H](Cc2ccccc2)NC1=O)N[C@@H](CO)Cc1ccccc1,inactive: 1.01
12,COCC(=O)Nc1ccc2c(c1)C(=O)N(C)[C@@H]1CC[C@H](CC(=O)NCc3ccccc3Cl)O[C@H]1CO2,inactive: 0.997
13,COc1ccc(NC(=O)N(C)C[C@H]2Oc3ccc(NC(=O)CCN4CCOCC4)cc3CC(=O)N([C@@H](C)CO)C[C@H]2C)cc1,inactive: 1.01
14,COc1ccc(COC[C@]23N=C4SCc5ccccc5C(=O)N4[C@H](c4ccccc4O2)[C@H]3COC(=O)c2ccccc2)cc1,inactive: 1.06
15,C[C@@H]1CN([C@H](C)CO)C(=O)c2cc(NS(=O)(=O)c3cn(C)cn3)ccc2O[C@@H](C)CCCCO[C@@H]1CN(C)C,inactive: 0.966
16,C[C@@H]1CCCCO[C@@H](CN(C)Cc2ccc(Cl)c(Cl)c2)[C@@H](C)CN([C@H](C)CO)C(=O)c2cc(NS(=O)(=O)c3ccccc3)ccc2O1,inactive: 1.02
17,COCC(=O)N1C[C@@H](C)[C@H](OC)CN(C)C(=O)c2cc(NC(=O)Nc3cccc(F)c3)ccc2OC[C@@H]1C,inactive: 0.999
18,C[C@H](CO)N1C[C@H](C)[C@@H](CN(C)Cc2ccc(Cl)c(Cl)c2)OCc2ccccc2-c2c(n(C)c3ccccc23)C1=O,inactive: 1.01
19,C[C@@H]1CCCCO[C@H](CN(C)C(=O)CCCN(C)C)[C@@H](C)CN([C@H](C)CO)C(=O)c2cc(N(C)C)ccc2O1,inactive: 0.971

# From the supplement of paper PMC9446081
